Laboratory results: PubChem BioAssay AID485364 (National Center for Advancing Translational Sciences (NCATS), 2010)
About 11,000 (3.1%) of roughly 360,000 compounds were called active. The inconclusive results got no clear call from the source; some entries with a clear call stand among them for comparison. Calls follow the shape of the dose curve; as a rule, active = well fitted inhibition curve with a large enough effect; inconclusive = small, poorly fitted or top-dose-only effect; inactive = no such curve, though single readings can be large or run the other way. No potency is given beside an inconclusive call; the fits are too rough.

The molecules below were run against Schistosoma mansoni thioredoxin glutathione reductase (TGR) (UniProt Q962Y6) (assay: qHTS Assay for the Inhibitors of Schistosoma Mansoni Peroxiredoxins). Settings: purified TGR, DTNB reduction, TNB absorbance 405 nm; series mostly up to 114 µM.
How it was run: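 TGR 20 nM + NADPH 100 uM (dispensed conc.), cpd preinc 15 min RT; start with NADPH (500 uM addition) then DTNB (15 mM addition). Kinetic TNB absorbance, 405 nm filter. Four-parameter Hill fit across titration.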
Also: nearly all actives have a fitted effect of over 60% in size.
Potency is read from the fitted curve at half-maximal effect; tags tell the direction and shape of the fitted curve.

| SMILES | Potency |
| --- | --- |
| CSc1cccc(NC(=S)NC(=O)c2cccnc2)c1 | inconclusive [inhibitor, full curve] |
| Cc1c(C)n(Cc2ccccc2)c2ccc(C(=O)NCCN3CCOCC3)cc12 | inconclusive [inhibitor, full curve, poor fit] |
| CN(C)c1nnc(-c2ccc(Cl)cc2)o1 | inconclusive [inhibitor, single point] |
| Cn1c(SCc2cccc(F)c2)nnc1-c1ccccn1 | inconclusive [inhibitor, full curve, poor fit] |
| C/C(=N\NC(=O)Cc1ccc(Cl)cc1)c1ccc(F)cc1 | inconclusive [inhibitor, full curve, poor fit] |
| CCNC(=O)c1c(NC(=O)c2cc(=O)c3ccc(C)c(C)c3o2)sc2c1CCCC2 | inactive |
| CC(C)n1c(SCC(=O)Nc2nncs2)nnc1C1CC1 | inconclusive [inhibitor, partial curve, poor fit] |
| Nc1cc(Cl)ccc1N1CCCCCC1 | active: 6.31 µM |
| O=C1/C(=C/c2ccncc2)SC(=S)N1Nc1ccccc1 | active: 3.16 µM |
| CC1=CC(=O)c2c(O)ccc(O)c2C1=O | inconclusive [inhibitor, full curve, poor fit] |
| COCCNc1oc(-c2ccc(C)cc2)nc1C#N | inactive |
| Cc1cccc(N2CCN(C(c3ccc(F)cc3)c3nnc(-c4ccccc4)o3)CC2)c1C (stereo not given) | inactive |
| COC(=O)c1c(C)[nH]c(O)c1C=Nc1ccc(C#N)cc1 | active: 12.6 µM |
| CCc1ccc(OCC(=O)NCC(c2ccc(Cl)cc2)N2CCOCC2)cc1 (stereo not given) | inactive |
| O=[N+]([O-])c1ccc2c(c1)nc1n2CCN(CC2CCCO2)C1 (stereo not given) | inconclusive [inhibitor, partial curve] |
| CC(C)c1ccc(NC(=O)c2cc3c(=O)oc4ccccc4c3s2)cc1 | inactive |
| O=C(CSc1nnc(C2CC2)n1Cc1ccco1)NCC(F)(F)F | active: 35.5 µM |
| O=C(CNC(=O)c1ccccc1)N/N=C/c1ccc([N+](=O)[O-])s1 | inconclusive [inhibitor, partial curve] |
| CCC(CC)c1nn2c(N)c(/C=C3\C(C)=Nc4ccccc43)c(=O)nc2s1 | inactive |
| Cc1ccccc1CNC(=O)Cn1cc2c(n1)-c1c(oc(C(=O)N3CCCC3)c1C)CC2 | inconclusive [inhibitor, partial curve] |
| Cc1cc(NS(=O)(=O)c2ccc(NC(=S)NC(=O)c3ccc(F)cc3)cc2)no1 | inconclusive [inhibitor, partial curve] |
| CSCC(=O)N1CCC(Oc2cccc(C(=O)NCc3ccccn3)c2)CC1 | inconclusive [inhibitor, full curve, poor fit] |
| COc1cccc(-n2cc(C(=O)Nc3ccccc3C(N)=O)c3ccccc3c2=O)c1 | inactive |
| CCOc1ccccc1NC(=O)c1nn(-c2ccc(OC)cc2)c(=O)c2c1c1ccccc1n2C | inactive |
| O=[N+]([O-])c1ccc(NC(=S)NCCc2ccc(F)cc2)cc1 | inactive |

| SMILES | Potency |
| --- | --- |
| CCc1ccc(CN2CCC(C(=O)Nc3ccc(Oc4ccccc4)nc3)CC2)o1 | inactive |
| COCCNC(=O)c1c(NC(=O)c2ccco2)n(Cc2ccccc2)c2nc3ccccc3nc12 | active: 25.1 µM |
| O=C(CN(c1ccccc1F)S(=O)(=O)c1ccccc1)NC1CCCCCC1 | inconclusive [inhibitor, partial curve] |
| COc1ccc(CCN2C(=O)CC(Nc3ccc(N4CCOCC4)cc3)C2=O)cc1OC (stereo not given) | active: 20 µM |
| O=C(Nc1sc2c(c1C(=O)NC1CC1)CCCCCC2)c1ccco1 | inconclusive [inhibitor, partial curve] |
| CSCC[C@H](NC(=O)[C@@H]1CSC2c3ccccc3C(=O)N21)C(=O)NCc1ccco1 (stereo not given in full) | inconclusive [inhibitor, partial curve] |
| CCn1c(SCC(=O)c2ccc(CNC(C)=O)o2)nnc1-c1cccs1 | inconclusive [inhibitor, partial curve] |
| CC(C(=O)N1CCCCC1)N(C)CC(=O)Nc1ccc(Cl)cc1 (stereo not given) | inconclusive [inhibitor, full curve] |
| CC1=CC(C)C(C[N+]2(C)CCCCC2)C(C)C1 (stereo not given) | inconclusive [inhibitor, partial curve] |
| Cc1ccc(C)c(/C(O)=C2/C(=O)C(=O)N(CCN3CCOCC3)C2c2ccc(C)o2)c1 (stereo not given) | inconclusive [inhibitor, partial curve] |
| O=C(c1cnc2nc3ccccc3n2c1)c1cc(F)ccc1O | inactive |
| COc1ccccc1CNC(=O)CS(=O)(=O)c1ccc(C)cc1 | inconclusive [inhibitor, partial curve] |
| COc1cc(/C=C(\C#N)C(=O)c2ccc(O)c(O)c2)cc(I)c1O | inconclusive [inhibitor, partial curve] |
| Cc1ccc(CNC(=O)c2cnn(-c3ccc(F)cc3F)c2C2CCN(C(=O)OC(C)(C)C)CC2)cc1 | inactive |
| CCOC(=O)N1CCC(N2C(=O)c3ccccc3C2Nc2c(C)cccc2C)CC1 (stereo not given) | inactive |
| Cc1ccccc1NC1=C(Cl)C(=O)OC1OC(=O)c1ccccc1C (stereo not given) | inconclusive [inhibitor, full curve, poor fit] |
| C#CCNC(=O)C1=C[C@@H](c2ccccc2)[C@H](CCCO)[C@@H](OCC)O1 | active: 35.5 µM |
| Cn1cccc1CC(=O)N/N=C/c1ccc([N+](=O)[O-])cc1 | inconclusive [inhibitor, partial curve] |
| Cc1cc(SCc2ccccc2)nc(=O)[nH]1 | inconclusive [inhibitor, full curve, poor fit] |
| COc1ccc(C(=O)Nc2nccs2)cc1OC | inactive |
| COC(=O)c1ccc2oc(=O)c(S(=O)(=O)c3ccc(C)cc3)cc2c1 | inactive |
| CC(=O)Nc1ccc(NC(=O)CSc2nnc3c4cc(Br)ccc4n(C)c3n2)cc1 | inactive |
| CC(C)C[C@@H](CC#N)N1CCN(Cc2ccccc2)CCC1=O | inconclusive [inhibitor, partial curve] |
| CC(=O)c1cccc(Nc2c3c(nc4nc(-c5cccs5)nn24)CCCC3)c1 | inconclusive [inhibitor, partial curve] |
| Nc1c(Cl)cc2c(c1Oc1ccccc1)C(=O)c1ccccc1C2=O | inactive |

| SMILES | Potency |
| --- | --- |
| COc1ccc(N2CCN(c3oc(COc4ccc(Cl)cc4)nc3C#N)CC2)cc1 | inactive |
| O=C(NCCc1ccccn1)c1ccc(COc2ccccc2)o1 | inconclusive [inhibitor, partial curve] |
| Cc1cc([N+](=O)[O-])ccc1NC(=S)NC1CCCC1 | inconclusive [inhibitor, partial curve] |
| CC(C)(C)OC(=O)N[C@@H](Cc1ccccc1)C(=O)NCC1CCC(C(=O)N[C@@H](CC(=O)O)C(=O)O)CC1 (stereo not given in full) | inactive |
| O=C(COC(=O)c1ccc(S(=O)(=O)N2CCCC2)cc1)NCc1ccco1 | active: 39.8 µM |
| CSc1ncc(C(=O)Nc2ccc(Br)cn2)c(C)n1 | inconclusive [inhibitor, partial curve, poor fit] |
| COc1ccc(CNC(=O)CS(=O)(=O)Cc2nc(-c3ccc(OC)cc3)oc2C)cc1 | inconclusive [inhibitor, partial curve] |
| CC1(C)Cc2nc3sc(C(N)=O)c(N)c3cc2CO1 | inactive |
| CC(C)(C)c1cc(C=C(C#N)C#N)cc(C(C)(C)C)c1O | inconclusive [inhibitor, partial curve] |
| O=C(O)c1ccccc1S(=O)(=O)NCC(O)COC1CCCCC1 (stereo not given) | inconclusive [inhibitor, single point] |
| CC1(C)N([O-])c2cc([N+](=O)[O-])ccc2[N+]1=O | inconclusive [inhibitor, full curve, poor fit] |
| CC(=O)N(C1=C(Cl)C(=O)c2ccccc2C1=O)C1CCCCC1 | active: 0.112 µM |
| Cc1cc(C)c(S(=O)(=O)NCCCn2ccnc2)cc1C | inconclusive [inhibitor, partial curve, poor fit] |
| Cc1nn(-c2ccccc2)c(C)c1C(=O)OCC(=O)NCc1ccco1 | active: 17.8 µM |
| O=C(Nc1ccc2nc(C3CC3)n(Cc3ccccc3)c(=O)c2c1)C1CC1 | inactive |
| COc1ccc(CN2CCNC(=O)C2CC(=O)NCCc2nc(C)c(C)s2)cc1C (stereo not given) | inconclusive [inhibitor, partial curve] |
| CC(=O)Nc1ccc(-c2csc(NC(=O)Cc3cccc(F)c3)n2)cc1 | inactive |
| Cc1cc(C(=O)O)ccc1N=Cc1c(O)ccc2ccccc12 | active: 50.1 µM |
| Cn1cnc(C(=O)N2CCN(C(=O)OC(C)(C)C)CC2)c1C(=O)N1CCN(C(=O)OC(C)(C)C)CC1 | active: 22.4 µM |
| Cc1cc(C(C2C(=O)CC(C)(C)CC2=O)C2C(=O)CC(C)(C)CC2=O)cc(C)c1OC(F)F | active: 31.6 µM |
| CCn1nc(-c2ccccc2)nc2c(=O)n(C)c(=O)nc1-2 | inconclusive [inhibitor, full curve, poor fit] |
| Cc1cccc(C)c1OCC(=O)N/N=C/C=C/c1ccco1 | active: 15.8 µM |
| Cc1[nH]c2ccccc2c1CC(=O)O | active: 44.7 µM |
| CCCCN1C(=O)/C(=C/C=C/c2ccco2)C(=O)NC1=S | active: 4.47 µM |
| Cc1ccccc1CSc1nc(-c2ccccc2)nc2c1Cc1c(CO)cnc(C)c1O2 | active: 39.8 µM |
